Results on 42 compounds are retold here after ChEMBL document CHEMBL4888484, “Replenishing the malaria drug discovery pipeline: Screening and hit evaluation of the MMV Hit Generation Library 1 (HGL1) against asexual blood stage Plasmodium falciparum ,using a nano luciferase reporter read-out” (2022).

SMILES strings stand for the structures. The campaign covered roughly 150,000 compounds. About 540 (0.36%) showed an effect of 50% or more. The list shows a part of the results.

For the assay, the system named is Plasmodium falciparum. Briefly: Primary screen in NF54 nanoGlo assay, in single point, at 2uM, 72h; a lower Z score goes with more inhibition. In kind it is functional, Erythrocyte. The settings on record: timepoint 72 hour.
As for `CC[C@H](C)CNC(=O)c1n[nH]c2c1CN(C(=O)c1ccc3c(c1)OCO3)CC2`, the “% Inhibition” value is recorded as -8% and the Z score came to 1.21.
As to `COc1nn(C)cc1C(=O)N1CCN(CC(=O)c2ccco2)CC1`, the “% Inhibition” value is listed as -12% and the Z score is recorded as 2.29.
As to `O[C@H](COc1ccc(F)cc1)Cn1ccnc1-c1cccnc1`, the “% Inhibition” value is reported as -4% and the Z score is 0.38.
In the same order, the values of `O=C(c1ccccc1)N1CCN(Cc2ccc(-n3ccnc3)cc2)CC1` are -3% and 0.33.
The matching figures for `COc1cccc([C@H](CN2CCN(S(=O)(=O)c3ccc(C)c(F)c3)CC2)OCc2cccc(Cl)c2)c1`: 0% and 0.05.
The matching figures for `Cc1nsc(NCCN2CC3CCC(C2)O3)c1C#N`: -5% and 0.8.
For `COc1ccc2c(c1)c(=O)ncn2C[C@@H](O)c1ccccc1`, the “% Inhibition” value was -6% and the Z score was found to be 0.74.
In the same order, the values of `CCCc1ncncc1-c1nc(C2CC2)nn1CCC` are 6% and -0.91.
The matching figures for `O=C(c1ccc2ccccc2n1)N1CCC2(CC1)C[C@@H](Cc1cccc(F)c1)CCO2`: -4% and 0.56.
In the same order, the values of `O=C(c1ccc2[nH]cnc2c1)N1CCN(c2cc3c(nn2)CCCC3)CC1` are -21% and 3.56.
As to `CCN(CCCN1CCCC1)c1nccc(C)n1`, the “% Inhibition” value is -13% and the Z score amounted to 1.88.
In the same order, the values of `CC(C)n1nc2c(S(=O)(=O)N3CCCCC3)cccn2c1=O` are 1% and -0.13.
In the same order, the values of `O=C(N[C@H]1CCN(c2ccc(C(F)(F)F)cn2)C1)c1ccc(Cl)c(Cl)c1` are -5% and 1.
Take `CC(=O)c1ccc(S(=O)(=O)N2CCC3(CC2)N=C(c2ccccc2)C(=O)N3)cc1`: the “% Inhibition” value was -16% and the Z score is 2.12.
In the same order, the values of `COCc1cc(N[C@@H](Cc2ccc(O)cc2)C(N)=O)ncn1` are -5% and 0.91.
The matching figures for `O=C(O)[C@@H]1CN(C(=O)c2ccc(Cl)o2)C[C@@H]1c1ccccc1`: -13% and 1.76.
In the same order, the values of `COC(=O)N1CCCC[C@H]1C(=O)N1CCC2(CC1)c1nc[nH]c1CCN2C` are -17% and 2.2.
`Fc1ccc(C2=CCN(c3ccc4nnc(C(F)(F)F)n4n3)C2)cc1`: the “% Inhibition” value is on record as 5% and the Z score was -0.54.
The matching figures for `O=C(c1ncccc1O)N1CCC(c2nccn2Cc2ccccc2)CC1`: -3% and 0.48.
`COc1ccc(NC(=O)c2cc(C)nc3c2c(C)nn3-c2cccc(Cl)c2C)cc1`: the “% Inhibition” value was -1% and the Z score came out at 0.14.
As for `Cc1c(C(=O)NC2(C#N)CC2)nnn1-c1ccc(Cl)cc1F`, the “% Inhibition” value is given as 3% and the Z score is reported as -0.48.
In the same order, the values of `Cn1cc(S(=O)(=O)N2CCC(CCC(=O)NC[C@H]3CCCO3)CC2)cn1` are 5% and -0.87.
The matching figures for `Cc1cccc(NS(=O)(=O)[C@H]2CCS(=O)(=O)C2)c1`: -4% and 0.54.
In the same order, the values of `COc1ccccc1OCC(=O)Nc1cc2c(cc1C(=O)O)OCCCO2` are 14% and -2.29.
In the case of `O=C(CCN1CCCCC1)c1cc2ccccc2o1`, the “% Inhibition” value is on record as -7% and the Z score came out at 0.95.
For the compound `CCOC(=O)[C@H]1CCCN(C(=O)NCc2ccc(NC(C)=O)cc2)C1`, the “% Inhibition” value is listed as -4% and the Z score was 0.5.
The matching figures for `O=C(Nc1ccc(-c2ccccn2)cn1)c1csc(Cc2ccc(F)cc2)n1`: -7% and 0.97.
In the same order, the values of `CCN(C[C@H]1COc2ccccc2O1)C(=O)Cn1cnc(C#N)n1` are -10% and 1.63.
The matching figures for `Cc1nc([C@H](NC(=O)c2cncc(O)c2)c2ccc(Cl)cc2)no1`: -4% and 0.54.
Take `COc1cccc(CC2=NO[C@H](C(=O)NCc3ccon3)C2)c1`: the “% Inhibition” value is 6% and the Z score is on record as -0.78.
The matching figures for `COC(=O)C1CCCCC1NC(=O)c1ccncc1F` (centres undefined): -10% and 1.02.
In the same order, the values of `O=C(NCCn1ccccc1=O)N[C@H]1CCCC12CCCCC2` are -6% and 0.72.
The matching figures for `CN1CCc2cc(-c3ncccn3)ccc21`: 2% and -0.3.
Turning to `CN1CC[C@@]2(CCC1=O)CN(Cc1cccc(O)c1)CCN2C`, the “% Inhibition” value is -17% and the Z score is reported as 1.68.
On to `CC(C)(CNC(=O)c1ccncc1)CNC(=O)c1ccncc1`, for which the “% Inhibition” value was -3% and the Z score was 0.61.
For `O=C(NCCc1ccc[nH]1)[C@H]1CC[C@H](Nc2ncccn2)CC1`, the “% Inhibition” value was -2% and the Z score is on record as 0.3.
The matching figures for `CCc1ccc(-c2nn(CC)c(=O)c3c2CCCC3)cc1S(=O)(=O)N1CCCC[C@@H]1C`: -3% and 0.39.
The matching figures for `COc1ccc(CNC(=O)c2cc(-c3sc(-c4cccc(C)c4)nc3C)n[nH]2)cc1`: -7% and 0.93.
The matching figures for `O=C(c1nccc2ccccc12)N1CC(n2nccn2)C1`: 6% and -0.74.
Regarding `Cc1noc(C2CN(C(=O)c3nc4ccccc4s3)C2)n1`, the “% Inhibition” value is given as -4% and the Z score worked out at 0.66.
The matching figures for `Cc1nc(NC(=O)c2ccccc2NC(=O)c2ccco2)sc1C`: -12% and 2.36.
The matching figures for `O=C(NC[C@H]1CCCN1c1ccccn1)c1cccc(Cl)c1`: -13% and 2.45.
